Assay results published in patent US20200308274A1.

Tests used:
[1] = target: liraglutide fibrils (human) (UniProt P01275); test: ELISA Assay (III-B); row labelled 1 uM; two-step purified antibody; raw signal, mean of 3
[2] = target: soluble liraglutide (human) (UniProt P01275); test: as above
[3] = target: liraglutide fibrils (human) (UniProt P01275); test: ELISA Assay (III-B); row labelled 3 uM; two-step purified antibody; raw signal, mean of 3
[4] = target: soluble liraglutide (human) (UniProt P01275); test: as above
[5] = target: liraglutide fibrils (human) (UniProt P01275); test: ELISA Assay (III-B); row labelled 1 uM; two-step purified antibody; A450 ratio, mean of 3
[6] = target: liraglutide fibrils (human) (UniProt P01275); test: ELISA Assay (III-B); row labelled 3 uM; two-step purified antibody; A450 ratio, mean of 3
[7] = target: liraglutide fibrils (human) (UniProt P01275); test: ELISA Assay (III-B); row labelled 10 uM; two-step purified antibody; raw signal, mean of 3
[8] = target: soluble liraglutide (human) (UniProt P01275); test: as above
[9] = target: liraglutide fibrils (human) (UniProt P01275); test: ELISA Assay (III-B); row labelled 30 uM; two-step purified antibody; raw signal, mean of 3
[10] = target: soluble liraglutide (human) (UniProt P01275); test: as above
[11] = target: liraglutide fibrils (human) (UniProt P01275); test: ELISA Assay (III-B); row labelled 10 uM; two-step purified antibody; A450 ratio, mean of 3
[12] = target: liraglutide fibrils (human) (UniProt P01275); test: ELISA Assay (III-B); row labelled 30 uM; two-step purified antibody; A450 ratio, mean of 3
[13] = target: liraglutide fibrils (human) (UniProt P01275); test: ELISA Assay (III-B); row labelled 100 uM; two-step purified antibody; raw signal, mean of 3
[14] = target: soluble liraglutide (human) (UniProt P01275); test: as above
[15] = target: liraglutide fibrils (human) (UniProt P01275); test: ELISA Assay (III-B); row labelled 300 uM; two-step purified antibody; raw signal, mean of 3
[16] = target: soluble liraglutide (human) (UniProt P01275); test: as above
[17] = target: liraglutide fibrils (human) (UniProt P01275); test: ELISA Assay (III-B); row labelled 0.1 uM; two-step purified antibody; A450 ratio, mean of 3
[18] = target: liraglutide fibrils (human) (UniProt P01275); test: ELISA Assay (III-B); row labelled 0.3 uM; two-step purified antibody; A450 ratio, mean of 3
[19] = target: liraglutide fibrils (human) (UniProt P01275); test: ELISA Assay (III-B); row labelled 100 uM; two-step purified antibody; A450 ratio, mean of 3
[20] = target: liraglutide fibrils (human) (UniProt P01275); test: ELISA Assay (III-B); row labelled 300 uM; two-step purified antibody; A450 ratio, mean of 3
[21] = target: liraglutide fibrils (human) (UniProt P01275); test: ELISA Assay (III-B); row labelled 0.01 uM; two-step purified antibody; raw signal, mean of 3
[22] = target: soluble liraglutide (human) (UniProt P01275); test: as above
[23] = target: liraglutide fibrils (human) (UniProt P01275); test: ELISA Assay (III-B); row labelled 0.03 uM; two-step purified antibody; raw signal, mean of 3
[24] = target: soluble liraglutide (human) (UniProt P01275); test: as above
[25] = target: liraglutide fibrils (human) (UniProt P01275); test: ELISA Assay (III-B); row labelled 0.10 uM; two-step purified antibody; raw signal, mean of 3
[26] = target: soluble liraglutide (human) (UniProt P01275); test: as above
[27] = target: liraglutide fibrils (human) (UniProt P01275); test: ELISA Assay (III-B); row labelled 0.30 uM; two-step purified antibody; raw signal, mean of 3
[28] = target: soluble liraglutide (human) (UniProt P01275); test: as above
[29] = target: liraglutide fibrils (human) (UniProt P01275); test: ELISA Assay (III-B); row labelled 0.01 uM; two-step purified antibody; A450 ratio, mean of 3
[30] = target: liraglutide fibrils (human) (UniProt P01275); test: ELISA Assay (III-B); row labelled 0.03 uM; two-step purified antibody; A450 ratio, mean of 3
[31] = target: liraglutide fibrils (human) (UniProt P01275); test: ELISA Assay (IV); 0.1 uM fibrils in 1600 uM soluble liraglutide; 5 nM antibody; A450 ratio to soluble-only wells

B1: Antibody E (Fc fusion)
scFv: DIQMTQSPSSLSASVGDRVTITCRASQNVSDAVNWYQQKPGKAPKLLIYSASFLYSGVPSRFSGSRSGTDFTLTISSLQPEDFATYYCQQHYTNPPTFGQGTKVEIKRTSPNSASHSGSAPQTSSAPGSQEVQLVESGGGLVQPGGSLRLSCAASGFNIKDTYIHWVRQAPGKGLEWVARITPTDGTTRYAVSVKGRFTISADTSKNTAYLQMNSLRAEDTAVYYCAREWYEASYYDWFDYFDFSDYWGQGTLVTVSSAAA[human IgG1 Fc not written out]GSHHHHHHKLDYKDHDGDYKDHDIDYKDDDDK
- antibody binding signal (absorbance at 450 nm) [1]: 0.1
- antibody binding signal (absorbance at 450 nm) [2]: 0.05
- antibody binding signal (absorbance at 450 nm) [3]: 0.16
- antibody binding signal (absorbance at 450 nm) [4]: 0.05
- Liraglutide fibril specificity (Liraglutide fibril/Liraglutide monomer) [5]: 2.01
- Liraglutide fibril specificity (Liraglutide fibril/Liraglutide monomer) [6]: 3.04
- antibody binding signal (absorbance at 450 nm) [7]: 0.34
- antibody binding signal (absorbance at 450 nm) [8]: 0.08
- antibody binding signal (absorbance at 450 nm) [9]: 0.84
- antibody binding signal (absorbance at 450 nm) [10]: 0.15
- Liraglutide fibril specificity (Liraglutide fibril/Liraglutide monomer) [11]: 4.35
- Liraglutide fibril specificity (Liraglutide fibril/Liraglutide monomer) [12]: 5.59
- antibody binding signal (absorbance at 450 nm) [13]: 2.08
- antibody binding signal (absorbance at 450 nm) [14]: 0.32
- antibody binding signal (absorbance at 450 nm) [15]: 3.05
- antibody binding signal (absorbance at 450 nm) [16]: 0.51
- Liraglutide fibril specificity (Liraglutide fibril/Liraglutide monomer) [17]: 1.51
- Liraglutide fibril specificity (Liraglutide fibril/Liraglutide monomer) [18]: 1.62
- Liraglutide fibril specificity (Liraglutide fibril/Liraglutide monomer) [19]: 6.6
- Liraglutide fibril specificity (Liraglutide fibril/Liraglutide monomer) [20]: 5.93
- antibody binding signal (absorbance at 450 nm) [21]: 0.06
- antibody binding signal (absorbance at 450 nm) [22]: 0.05
- antibody binding signal (absorbance at 450 nm) [23]: 0.07
- antibody binding signal (absorbance at 450 nm) [24]: 0.05
- antibody binding signal (absorbance at 450 nm) [25]: 0.07
- antibody binding signal (absorbance at 450 nm) [26]: 0.05
- antibody binding signal (absorbance at 450 nm) [27]: 0.07
- antibody binding signal (absorbance at 450 nm) [28]: 0.05
- Liraglutide fibril specificity (Liraglutide fibril/Liraglutide monomer) [29]: 1.3
- Liraglutide fibril specificity (Liraglutide fibril/Liraglutide monomer) [30]: 1.4
- Antibody Specificity Ratio (Liraglutide fibril in mixture/Soluble liraglutide) [31]: 37.1
